The source of these data is the supplement of paper PMC8728848.

The other results are listed elsewhere or left out.

Assay in all cases: glycan array binding signal (z-score within array); higher = stronger binding
What all share (settings): glycan notation: IUPAC condensed, linker removed

The target in assay [1] is Neu5Ac(a2-8)Neu5Ac(a2-3)[GalNAc(b1-4)]Gal(b1-4)Glc. A digest of the protocol: (§1)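 Glycan array data came from 3228 arrays in the Consortium for Functional Glycomics database, and only arrays with an available protein sequence were kept. Glycan names were put into IUPAC-condensed notation, and columns mapping to the same glycan were averaged. The binding signal is a within-array Z-score, averaged across arrays of one protein sequence run at different concentrations or buffers and across linkers. A negative Z-score can be read as non-binding.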

The target of assay [2] is Neu5Ac(a2-8)Neu5Ac(a2-8)Neu5Ac. The gist of the method:
as §1

In assay [3] the target is Neu5Ac(a2-8)Neu5Ac(a2-8)Neu5Ac(a2-3)Gal(b1-4)Glc. The gist of the method: as §1
Assay [4] deals with Neu5Ac(a2-8)Neu5Ac(a2-8)Neu5Ac(a2-3)[GalNAc(b1-4)]Gal(b1-4)Glc. A digest of the protocol: as §1
Assay [5] concerns the target Neu5Ac(a2-8)Neu5Ac(a2-8)Neu5Ac(a2-8)Neu5Ac(a2-3)[GalNAc(b1-4)]Gal(b1-4)Glc. A digest of the protocol: as §1
For assay [6], the target named is Neu5Ac(b2-6)Gal(b1-4)GlcNAc. A digest of the protocol:
as §1

Another assay deals with Neu5Ac(b2-6)GalNAc. A digest of the protocol:
as §1

In assay [7] the target is Neu5Ac9Ac(a2-3)Gal(b1-3)GlcNAc. A digest of the protocol:
as §1

The target of assay [8] is Neu5Ac9Ac(a2-3)Gal(b1-4)GlcNAc. A digest of the protocol: as §1
The target of assay [9] is Neu5Ac9Ac(a2-6)Gal(b1-4)GlcNAc. The gist of the method:
as §1

The target in assay [10] is Neu5Gc(a2-3)Gal(b1-3)GlcNAc. A digest of the protocol: as §1
Assay [11] has as its target Neu5Gc(a2-3)Gal(b1-3)[Fuc(a1-4)]GlcNAc. A digest of the protocol: as §1
The target in another assay is Neu5Gc(a2-3)Gal(b1-4)Glc. A digest of the protocol: as §1
Assay [12] has as its target Neu5Gc(a2-3)Gal(b1-4)GlcNAc. The gist of the method:
as §1

The target in assay [13] is Neu5Gc(a2-3)Gal(b1-4)[Fuc(a1-3)]GlcNAc. The gist of the method: as §1
The target in assay [14] is Neu5Gc(a2-6)Gal(b1-4)GlcNAc. A digest of the protocol:
as §1

The target in another assay is Neu5Gc(a2-6)GalNAc. The gist of the method: as §1
Assay [15] concerns the target Neu5Gc(b2-6)Gal(b1-4)GlcNAc. A digest of the protocol: as §1

B1: BC2L-D C-terminal domain (Burkholderia cenocepacia), Q39MQ9_BURS3 (protein)
chain: LVIVDAVTLLSAYPEASRDPAAPTVIDGRHLYVVSPGDAAQLGHNDSRLFTGLSPGDQLHLRETALALRAEVSVLFIRFALKDAGIVAPIELEVRDAATAVPDADDLLHPSCRPLKDHYWRSDVLAAGATTCTADFAVCDRDGTVSGYFRWETSIEIAGSQPDTKQPGFKPSSDRNGNFSLPPNTAFKAIFYANAADRQDLKLFIDDAPEPAATFVGNSEDGVRLFTLNSKGGKIRIEASANGRQSATDARLAPLSAGDTVWLGWLGAEDGADADYNDGIVILQWPIT
Consider B1, for which the “glycan array binding signal (z-score)” value was -0.235 in assay [1]; -0.244 in assay [2]; -0.247 in assay [3]; -0.235 in assay [4]; -0.222 in assay [5]; -0.248 in assay [6]. For the same molecule, the “glycan array binding signal (z-score)” value is -0.247 with Neu5Ac(b2-6)GalNAc; -0.239 in assay [7]; -0.25 in assay [8]; -0.243 in assay [9]; -0.243 in assay [10]; -0.038 in assay [11]. Moreover, the “glycan array binding signal (z-score)” value with Neu5Gc(a2-3)Gal(b1-4)Glc was -0.233; in assay [12] it was -0.242; in assay [13], -0.236; in assay [14] it was -0.245; with Neu5Gc(a2-6)GalNAc it was -0.242; in [15] it was -0.233.
